Laboratory results published in the supplement of paper PMC10037445.
Whole data set: some 2,900 compounds, median “NF-kB SEAP reporter activity, fold change vs agonist alone” near 0.99, cut for the highest 2% near 2.6. This is one part of the list.

How the values were obtained:
RAW-Dual [1] = test: NF-kB SEAP reporter activity, fold change vs agonist alone; cytotoxicity flag (confluency mask): not cytotoxic; higher = enhanced NF-kB activity
In short: (§1)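 RAW-Dual macrophages were seeded in DMEM at 50,000 cells/well in 384-well plates, given 50 nL of library stock by pin tool, and given a PRR agonist 1 h later. Plates were held at 37 °C, 5% CO2 for 20 hours, after which supernatant was read for IRF by QuantiLuc luminescence and for NF-κB by QuantiBlue absorbance at 620 nm. Reporter activity is expressed as fold change over wells that received agonist alone. A well was called cytotoxic when IncuCyte confluency fell below 70% of agonist controls in both mask sets.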

RAW-Dual [2] = test: NF-kB SEAP reporter activity, fold change vs agonist alone; higher = enhanced NF-kB activity; details: library stock concentration (final ~1000-fold dilution): 10 mM
In short: as §1

RAW-Dual [3] = test: NF-kB SEAP reporter activity, fold change vs agonist alone; cytotoxicity flag (confluency mask): cytotoxic (confluency <70% of control); higher = enhanced NF-kB activity
In short: as §1

[4] = agonist: ODN 1826 (TLR9) 0.5 ug/mL
[5] = agonist: Pam2CSK4 (TLR2/6) 0.1 ug/mL
[6] = agonist: Pam3CSK4 (TLR2/1) 0.1 ug/mL
[7] = cytotoxicity flag (confluency mask): not cytotoxic, agonist: Imiquimod (TLR7) […]
[8] = cytotoxicity flag (confluency mask): not cytotoxic, agonist: MPLA (TLR4) […]
[9] = cytotoxicity flag (confluency mask): cytotoxic (confluency <70% of control), agonist: Imiquimod (TLR7) […]
[10] = cytotoxicity flag (confluency mask): cytotoxic (confluency <70% of control), agonist: MPLA (TLR4) […]

SMILES: CC1CCC2(C(=O)OC3OC(COC4OC(CO)C(OC5OC(C)C(O)C(O)C5O)C(O)C4O)C(O)C(O)C3O)CCC3(C)C(=CCC4C5(C)CC(O)C(O)C(C)(CO)C5CCC43C)C2C1C (stereo not given) (library stock concentration (final ~1000-fold dilution): 10 mM)
- NF-kB SEAP reporter activity (RAW-Dual [1]; agonist: LPS (TLR4) 0.1 ug/mL): 0.922
- NF-kB SEAP reporter activity (RAW-Dual [1]; [4]): 1
- NF-kB SEAP reporter activity (RAW-Dual [1]; [5]): 1.04
- NF-kB SEAP reporter activity (RAW-Dual [1]; [6]): 1.05

SMILES: CC1CCC2(C(=O)OC3OC(COC4OC(CO)C(OC5OC(C)C(O)C(O)C5O)C(O)C4O)C(O)C(O)C3O)CCC3(C)C(=CCC4C5(C)CC(O)C(O)C(C)(CO)C5CCC43C)C2C1C (stereo not given)
- NF-kB SEAP reporter activity (RAW-Dual [2]; [7]): 0.997
- NF-kB SEAP reporter activity (RAW-Dual [2]; [8]): 1.05

SMILES: c1ccc2c(CCNc3ccc(Nc4ccncc4)cc3)c[nH]c2c1
- NF-kB SEAP reporter activity (RAW-Dual [2]; [7]): 2.49
- NF-kB SEAP reporter activity (RAW-Dual [2]; [8]): 1.98

SMILES: c1ccc2c(CCNc3ccc(Nc4ccncc4)cc3)c[nH]c2c1 (library stock concentration (final ~1000-fold dilution): 10 mM)
- NF-kB SEAP reporter activity (RAW-Dual [1]; agonist: LPS (TLR4) 0.1 ug/mL): 1.15
- NF-kB SEAP reporter activity (RAW-Dual [1]; [4]): 0.221
- NF-kB SEAP reporter activity (RAW-Dual [1]; [5]): 0.868
- NF-kB SEAP reporter activity (RAW-Dual [1]; [6]): 1.17

SMILES: CC(=O)NC(Cc1ccc(O)cc1)C(=O)NC(CCCNC(=N)N)C(=O)NC(Cc1ccccc1)C(N)=O (stereo not given)
- NF-kB SEAP reporter activity (RAW-Dual [2]; [7]): 0.943
- NF-kB SEAP reporter activity (RAW-Dual [2]; [8]): 1

SMILES: CC(=O)NC(Cc1ccc(O)cc1)C(=O)NC(CCCNC(=N)N)C(=O)NC(Cc1ccccc1)C(N)=O (stereo not given) (library stock concentration (final ~1000-fold dilution): 10 mM)
- NF-kB SEAP reporter activity (RAW-Dual [1]; agonist: LPS (TLR4) 0.1 ug/mL): 1.02
- NF-kB SEAP reporter activity (RAW-Dual [1]; [4]): 1.12
- NF-kB SEAP reporter activity (RAW-Dual [1]; [5]): 1.12
- NF-kB SEAP reporter activity (RAW-Dual [1]; [6]): 1.01

SMILES: Cc1cc(C(C)Nc2ccccc2C(=O)O)c2nc(N3CCOCC3)cc(=O)n2c1 (stereo not given)
- NF-kB SEAP reporter activity (RAW-Dual [2]; [7]): 0.776
- NF-kB SEAP reporter activity (RAW-Dual [2]; [8]): 0.98

SMILES: Cc1cc(C(C)Nc2ccccc2C(=O)O)c2nc(N3CCOCC3)cc(=O)n2c1 (stereo not given) (library stock concentration (final ~1000-fold dilution): 10 mM)
- NF-kB SEAP reporter activity (RAW-Dual [1]; agonist: LPS (TLR4) 0.1 ug/mL): 1.72
- NF-kB SEAP reporter activity (RAW-Dual [1]; [4]): 1.24
- NF-kB SEAP reporter activity (RAW-Dual [1]; [5]): 0.989
- NF-kB SEAP reporter activity (RAW-Dual [1]; [6]): 1.08

SMILES: COc1c(C)cnc(Cn2cnc3c(Cl)nc(N)nc32)c1C
- NF-kB SEAP reporter activity (RAW-Dual [2]; [9]): 0.242
- NF-kB SEAP reporter activity (RAW-Dual [2]; [10]): 0.433

SMILES: COc1c(C)cnc(Cn2cnc3c(Cl)nc(N)nc32)c1C (library stock concentration (final ~1000-fold dilution): 10 mM)
- NF-kB SEAP reporter activity (RAW-Dual [3]; agonist: LPS (TLR4) 0.1 ug/mL): 0.245
- NF-kB SEAP reporter activity (RAW-Dual [3]; [4]): 0.19
- NF-kB SEAP reporter activity (RAW-Dual [3]; [5]): 0.159
- NF-kB SEAP reporter activity (RAW-Dual [3]; [6]): 0.146

SMILES: COc1ccc2c(Oc3ccc(NC(=O)c4c(C)n(CC(C)(C)O)n(-c5ccccc5)c4=O)nc3)ccnc2c1 (library stock concentration (final ~1000-fold dilution): 10 mM)
- NF-kB SEAP reporter activity (RAW-Dual [1]; agonist: LPS (TLR4) 0.1 ug/mL): 0.793
- NF-kB SEAP reporter activity (RAW-Dual [1]; [4]): 0.567
- NF-kB SEAP reporter activity (RAW-Dual [1]; [5]): 0.472
- NF-kB SEAP reporter activity (RAW-Dual [1]; [6]): 0.485

SMILES: COc1ccc2c(Oc3ccc(NC(=O)c4c(C)n(CC(C)(C)O)n(-c5ccccc5)c4=O)nc3)ccnc2c1
- NF-kB SEAP reporter activity (RAW-Dual [2]; [7]): 0.867
- NF-kB SEAP reporter activity (RAW-Dual [2]; [8]): 0.896

SMILES: CC(C)c1cccc(O)c(=O)c1 (library stock concentration (final ~1000-fold dilution): 10 mM)
- NF-kB SEAP reporter activity (RAW-Dual [1]; agonist: LPS (TLR4) 0.1 ug/mL): 0.57
- NF-kB SEAP reporter activity (RAW-Dual [1]; [4]): 0.772
- NF-kB SEAP reporter activity (RAW-Dual [1]; [5]): 0.42
- NF-kB SEAP reporter activity (RAW-Dual [1]; [6]): 0.431

SMILES: CC(C)c1cccc(O)c(=O)c1
- NF-kB SEAP reporter activity (RAW-Dual [2]; [7]): 0.881
- NF-kB SEAP reporter activity (RAW-Dual [2]; [8]): 0.956

SMILES: Cc1csc(-c2nnc(Nc3ccc(Oc4ncccc4-c4ccnc(N)n4)cc3)c3ccccc23)c1
- NF-kB SEAP reporter activity (RAW-Dual [2]; [9]): 0.335
- NF-kB SEAP reporter activity (RAW-Dual [2]; [10]): 0.28

SMILES: Cc1csc(-c2nnc(Nc3ccc(Oc4ncccc4-c4ccnc(N)n4)cc3)c3ccccc23)c1 (library stock concentration (final ~1000-fold dilution): 10 mM)
- NF-kB SEAP reporter activity (RAW-Dual [3]; agonist: LPS (TLR4) 0.1 ug/mL): 0.215
- NF-kB SEAP reporter activity (RAW-Dual [3]; [4]): 0.233
- NF-kB SEAP reporter activity (RAW-Dual [3]; [5]): 0.123
- NF-kB SEAP reporter activity (RAW-Dual [3]; [6]): 0.212

SMILES: O=c1ncccn1C1OC(CO)C(O)C1O (stereo not given)
- NF-kB SEAP reporter activity (RAW-Dual [2]; [7]): 0.949
- NF-kB SEAP reporter activity (RAW-Dual [2]; [8]): 0.947
